The supplement of paper PMC12217912
The list shows a part of the results. Sequences were assembled here from the parent chain. Values near 0.05 are background.

B1: TEV protease; numbered along this chain (parent)
chain: MGESLFKGPRDYNPISSSICHLTNESDGHTTSLYGIGFGPFIITNKHLFRRNNGTLVVQSLHGVFKVKDTTTLQQHLVDGRDMIIIRMPKDFPPFPQKLKFREPQREERICLVTTNFQTKSMSSMVSDTSCTFPSGDGIFWKHWIQTKDGQCGSPLVSTRDGFIVGIHSASNFTNTNNYFTSVPKNFMELLTNQEAQQWVSGWRLNADSVLWGGHKVFMVKPEEPFQPVKEATQL

Variants of: B1
Test: raw area under fraction-flipped curve 0-4 h after induction (AUC4h, not background-subtracted), DNA-recorder readout of cleavage of the substrate (dimensionless); higher = more cleavage of the substrate by the protease variant
Conditions: temperature: 34 °C; time window: 0-4 h after rhamnose induction
Protocol: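 In vivo DNA recorder in E. coli TOP10(DE3) ΔrhaA at 34 °C. Each TEVp single-site mutant (parent TEVp 0) is paired with a single-site variant of the 7-mer TEVs (canonical ENLYFQ|S). The substrate sits between flexible linkers in a Bxb1-sfGFP-TEVs-SsrA fusion, so cleavage stabilises Bxb1 and speeds flipping of a recombination array, read by NGS. The value is the raw area under the fraction-flipped curve over 0-4 h after rhamnose induction (AUC4h), with ≥20 reads per time point. It is not background-subtracted; inactive controls average about 0.047.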
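Further: Bxb1 expression induced with 0.2% (w/v) L-rhamnose at OD600 near 0.5, cultures sampled hourly, flipped fraction per protease–substrate barcode pair counted by paired-end Illumina sequencing.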

Variant	area with substrate EALYFQS	area with substrate ECLYFQS	area with substrate EGLYFQS	area with substrate EHLYFQS	area with substrate EILYFQS	area with substrate EKLYFQS	area with substrate ELLYFQS	area with substrate EQLYFQS	area with substrate ERLYFQS	area with substrate ESLYFQS	area with substrate ETLYFQS	area with substrate EVLYFQS	area with substrate EWLYFQS	area with substrate EYLYFQS	area with substrate EDLYFQS	area with substrate EELYFQS	area with substrate EFLYFQS	area with substrate EMLYFQS	area with substrate EPLYFQS
MGESLFKGPRDYNPISSSICHLTNESDGHTTSLYGIGFGPFIITEKHLFRRNNGTLVVQSLHGVFKVKDTTTLQQHLVDGRDMIIIRMPKDFPPFPQKLKFREPQREERICLVTTNFQTKSMSSMVSDTSCTFPSGDGIFWKHWIQTKDGQCGSPLVSTRDGFIVGIHSASNFTNTNNYFTSVPKNFMELLTNQEAQQWVSGWRLNADSVLWGGHKVFMVKPEEPFQPVKEATQL [N45E]	0.0632	0.058	0.0592	0.0598	0.0633	0.0638	0.084	0.0584	0.0587	0.0592	0.0537	0.061	0.0558	0.0535					
MGESLFKGPRDYNPISSSICHLTNESDGHTTSLYGIGFGPFIITPKHLFRRNNGTLVVQSLHGVFKVKDTTTLQQHLVDGRDMIIIRMPKDFPPFPQKLKFREPQREERICLVTTNFQTKSMSSMVSDTSCTFPSGDGIFWKHWIQTKDGQCGSPLVSTRDGFIVGIHSASNFTNTNNYFTSVPKNFMELLTNQEAQQWVSGWRLNADSVLWGGHKVFMVKPEEPFQPVKEATQL [N45P]	0.0469					0.0582		0.0769		0.0765	0.0888	0.0564		0.0907	0.116	0.0981			
MGESLFKGPRDYNPISSSICHLTNESDGHTTSLYGIGFGPFIITNKHLDRRNNGTLVVQSLHGVFKVKDTTTLQQHLVDGRDMIIIRMPKDFPPFPQKLKFREPQREERICLVTTNFQTKSMSSMVSDTSCTFPSGDGIFWKHWIQTKDGQCGSPLVSTRDGFIVGIHSASNFTNTNNYFTSVPKNFMELLTNQEAQQWVSGWRLNADSVLWGGHKVFMVKPEEPFQPVKEATQL [F49D]	0.0542	0.0589	0.0622	0.0595	0.0601	0.0484			0.0605	0.0549	0.0512	0.0348	0.0337			0.056	0.0635		
MGESLFKGPRDYNPISSSICHLTNESDGHTTSLYGIGFGPFIITNKHLQRRNNGTLVVQSLHGVFKVKDTTTLQQHLVDGRDMIIIRMPKDFPPFPQKLKFREPQREERICLVTTNFQTKSMSSMVSDTSCTFPSGDGIFWKHWIQTKDGQCGSPLVSTRDGFIVGIHSASNFTNTNNYFTSVPKNFMELLTNQEAQQWVSGWRLNADSVLWGGHKVFMVKPEEPFQPVKEATQL [F49Q]	0.0535		0.0465		0.0463		0.0619		0.0496	0.0542	0.0586	0.0705	0.0402					0.0836	
MGESLFKGPRDYNPISSSICHLTNESDGHTTSLYGIGFGPFIITNKHLYRRNNGTLVVQSLHGVFKVKDTTTLQQHLVDGRDMIIIRMPKDFPPFPQKLKFREPQREERICLVTTNFQTKSMSSMVSDTSCTFPSGDGIFWKHWIQTKDGQCGSPLVSTRDGFIVGIHSASNFTNTNNYFTSVPKNFMELLTNQEAQQWVSGWRLNADSVLWGGHKVFMVKPEEPFQPVKEATQL [F49Y]	0.0715	0.0618		0.0718	0.0636	0.0861	0.0574	0.0684	0.0728	0.0703		0.0988	0.0706	0.0738		0.079	0.076	0.0779	0.0587
MGESLFKGPRDYNPISSSICHLTNESDGHTTSLYGIGFGPFIITNKHLFCRNNGTLVVQSLHGVFKVKDTTTLQQHLVDGRDMIIIRMPKDFPPFPQKLKFREPQREERICLVTTNFQTKSMSSMVSDTSCTFPSGDGIFWKHWIQTKDGQCGSPLVSTRDGFIVGIHSASNFTNTNNYFTSVPKNFMELLTNQEAQQWVSGWRLNADSVLWGGHKVFMVKPEEPFQPVKEATQL [R50C]	0.135	0.0964	0.125	0.122		0.123	0.162	0.119		0.134		0.193	0.105	0.104		0.134			
MGESLFKGPRDYNPISSSICHLTNESDGHTTSLYGIGFGPFIITNKHLFRRQNGTLVVQSLHGVFKVKDTTTLQQHLVDGRDMIIIRMPKDFPPFPQKLKFREPQREERICLVTTNFQTKSMSSMVSDTSCTFPSGDGIFWKHWIQTKDGQCGSPLVSTRDGFIVGIHSASNFTNTNNYFTSVPKNFMELLTNQEAQQWVSGWRLNADSVLWGGHKVFMVKPEEPFQPVKEATQL [N52Q]	0.0871		0.094	0.0911	0.0691	0.062		0.0791	0.0378	0.094	0.0852	0.0926				0.0765	0.0889	0.0629	0.0894
MGESLFKGPRDYNPISSSICHLTNESDGHTTSLYGIGFGPFIITNKHLFRRNDGTLVVQSLHGVFKVKDTTTLQQHLVDGRDMIIIRMPKDFPPFPQKLKFREPQREERICLVTTNFQTKSMSSMVSDTSCTFPSGDGIFWKHWIQTKDGQCGSPLVSTRDGFIVGIHSASNFTNTNNYFTSVPKNFMELLTNQEAQQWVSGWRLNADSVLWGGHKVFMVKPEEPFQPVKEATQL [N53D]	0.134	0.108	0.107	0.109	0.0794	0.139	0.1	0.103		0.117		0.107				0.115	0.157	0.114	
MGESLFKGPRDYNPISSSICHLTNESDGHTTSLYGIGFGPFIITNKHLFRRNQGTLVVQSLHGVFKVKDTTTLQQHLVDGRDMIIIRMPKDFPPFPQKLKFREPQREERICLVTTNFQTKSMSSMVSDTSCTFPSGDGIFWKHWIQTKDGQCGSPLVSTRDGFIVGIHSASNFTNTNNYFTSVPKNFMELLTNQEAQQWVSGWRLNADSVLWGGHKVFMVKPEEPFQPVKEATQL [N53Q]	0.108	0.0915		0.095	0.0739	0.0724	0.0821	0.0885	0.0766	0.0845		0.0829		0.0882		0.107	0.0982	0.101	0.121
MGESLFKGPRDYNPISSSICHLTNESDGHTTSLYGIGFGPFIITNKHLFRRNNATLVVQSLHGVFKVKDTTTLQQHLVDGRDMIIIRMPKDFPPFPQKLKFREPQREERICLVTTNFQTKSMSSMVSDTSCTFPSGDGIFWKHWIQTKDGQCGSPLVSTRDGFIVGIHSASNFTNTNNYFTSVPKNFMELLTNQEAQQWVSGWRLNADSVLWGGHKVFMVKPEEPFQPVKEATQL [G54A]	0.0734		0.0646	0.0724	0.061		0.0752	0.0634	0.0638	0.0671		0.084	0.0778	0.0602		0.0772		0.0721	0.101
MGESLFKGPRDYNPISSSICHLTNESDGHTTSLYGIGFGPFIITNKHLFRRNNCTLVVQSLHGVFKVKDTTTLQQHLVDGRDMIIIRMPKDFPPFPQKLKFREPQREERICLVTTNFQTKSMSSMVSDTSCTFPSGDGIFWKHWIQTKDGQCGSPLVSTRDGFIVGIHSASNFTNTNNYFTSVPKNFMELLTNQEAQQWVSGWRLNADSVLWGGHKVFMVKPEEPFQPVKEATQL [G54C]	0.0791	0.0773	0.0749	0.0931		0.0799	0.0786	0.093	0.0768	0.0701	0.0718	0.062		0.0732		0.0888	0.0728	0.0772	0.0652
MGESLFKGPRDYNPISSSICHLTNESDGHTTSLYGIGFGPFIITNKHLFRRNNKTLVVQSLHGVFKVKDTTTLQQHLVDGRDMIIIRMPKDFPPFPQKLKFREPQREERICLVTTNFQTKSMSSMVSDTSCTFPSGDGIFWKHWIQTKDGQCGSPLVSTRDGFIVGIHSASNFTNTNNYFTSVPKNFMELLTNQEAQQWVSGWRLNADSVLWGGHKVFMVKPEEPFQPVKEATQL [G54K]	0.065		0.0613			0.0527	0.058		0.0927	0.0768	0.0756	0.0589		0.0539			0.0643		
MGESLFKGPRDYNPISSSICHLTNESDGHTTSLYGIGFGPFIITNKHLFRRNNMTLVVQSLHGVFKVKDTTTLQQHLVDGRDMIIIRMPKDFPPFPQKLKFREPQREERICLVTTNFQTKSMSSMVSDTSCTFPSGDGIFWKHWIQTKDGQCGSPLVSTRDGFIVGIHSASNFTNTNNYFTSVPKNFMELLTNQEAQQWVSGWRLNADSVLWGGHKVFMVKPEEPFQPVKEATQL [G54M]	0.0836	0.0689			0.062	0.0742	0.0569	0.0823	0.072	0.0622	0.0948	0.0747	0.0722	0.0573		0.102	0.0372	0.124	0.0713
MGESLFKGPRDYNPISSSICHLTNESDGHTTSLYGIGFGPFIITNKHLFRRNNWTLVVQSLHGVFKVKDTTTLQQHLVDGRDMIIIRMPKDFPPFPQKLKFREPQREERICLVTTNFQTKSMSSMVSDTSCTFPSGDGIFWKHWIQTKDGQCGSPLVSTRDGFIVGIHSASNFTNTNNYFTSVPKNFMELLTNQEAQQWVSGWRLNADSVLWGGHKVFMVKPEEPFQPVKEATQL [G54W]	0.0599	0.0706		0.0625	0.0485	0.0662	0.0632			0.0688		0.0648		0.0702		0.0748	0.0755	0.0679	
MGESLFKGPRDYNPISSSICHLTNESDGHTTSLYGIGFGPFIITNKHLFRRNNGCLVVQSLHGVFKVKDTTTLQQHLVDGRDMIIIRMPKDFPPFPQKLKFREPQREERICLVTTNFQTKSMSSMVSDTSCTFPSGDGIFWKHWIQTKDGQCGSPLVSTRDGFIVGIHSASNFTNTNNYFTSVPKNFMELLTNQEAQQWVSGWRLNADSVLWGGHKVFMVKPEEPFQPVKEATQL [T55C]	0.105	0.11	0.0947	0.0981	0.123	0.0739	0.101	0.121	0.101	0.102	0.105			0.13		0.139		0.101	
MGESLFKGPRDYNPISSSICHLTNESDGHTTSLYGIGFGPFIITNKHLFRRNNGTLNVQSLHGVFKVKDTTTLQQHLVDGRDMIIIRMPKDFPPFPQKLKFREPQREERICLVTTNFQTKSMSSMVSDTSCTFPSGDGIFWKHWIQTKDGQCGSPLVSTRDGFIVGIHSASNFTNTNNYFTSVPKNFMELLTNQEAQQWVSGWRLNADSVLWGGHKVFMVKPEEPFQPVKEATQL [V57N]	0.0976				0.0864	0.12	0.102			0.111	0.0845	0.0947	0.0652		0.115		0.0921		0.127
MGESLFKGPRDYNPISSSICHLTNESDGHTTSLYGIGFGPFIITNKHLFRRNNGTLSVQSLHGVFKVKDTTTLQQHLVDGRDMIIIRMPKDFPPFPQKLKFREPQREERICLVTTNFQTKSMSSMVSDTSCTFPSGDGIFWKHWIQTKDGQCGSPLVSTRDGFIVGIHSASNFTNTNNYFTSVPKNFMELLTNQEAQQWVSGWRLNADSVLWGGHKVFMVKPEEPFQPVKEATQL [V57S]	0.159	0.127			0.0871	0.106		0.142	0.0806	0.0974		0.0998	0.0802					0.0742	0.154
MGESLFKGPRDYNPISSSICHLTNESDGHTTSLYGIGFGPFIITNKHLFRRNNGTLVRQSLHGVFKVKDTTTLQQHLVDGRDMIIIRMPKDFPPFPQKLKFREPQREERICLVTTNFQTKSMSSMVSDTSCTFPSGDGIFWKHWIQTKDGQCGSPLVSTRDGFIVGIHSASNFTNTNNYFTSVPKNFMELLTNQEAQQWVSGWRLNADSVLWGGHKVFMVKPEEPFQPVKEATQL [V58R]	0.0499				0.0418	0.0573		0.0558		0.0511	0.0611	0.0354			0.0492	0.0441			
